Measured values reported in PubChem BioAssay AID1721 (National Center for Advancing Translational Sciences (NCATS), 2009).
The whole screen tested about 290,000 compounds, of which about 1,100 (0.38%) were called active. Inconclusive means that the source gave no clear call. Such entries were picked first, then a sample of the others. Calls come from the whole dose curve; as a rule, active = well fitted inhibition curve with a large enough effect; inconclusive = small, poorly fitted or top-dose-only effect, or another doubt; inactive = no such curve, though single readings can be large or run the other way. Potencies beside an inconclusive call are fits to weak or partial responses and may not hold up.

target: Pyruvate kinase (Leishmania mexicana) (UniProt Q27686); assay: qHTS Assay for Inhibitors of Leishmania Mexicana Pyruvate Kinase (LmPK); details: purified LmPK, Kinase-Glo ATP luminescence, 1 h; series mostly up to 57.5 µM
Method in brief: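 Kinase-Glo luminescence read after 1 h RT reaction of 0.1 nM LmPK with 0.5 mM PEP and 0.1 mM ADP. Activity scaled between uninhibited and enzyme-free controls.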
Potency is the fitted concentration of half-maximal effect; tags give direction and shape of the fitted curve.

Sequence of UniProt Q27686 (Q27686 whole entry, looked up): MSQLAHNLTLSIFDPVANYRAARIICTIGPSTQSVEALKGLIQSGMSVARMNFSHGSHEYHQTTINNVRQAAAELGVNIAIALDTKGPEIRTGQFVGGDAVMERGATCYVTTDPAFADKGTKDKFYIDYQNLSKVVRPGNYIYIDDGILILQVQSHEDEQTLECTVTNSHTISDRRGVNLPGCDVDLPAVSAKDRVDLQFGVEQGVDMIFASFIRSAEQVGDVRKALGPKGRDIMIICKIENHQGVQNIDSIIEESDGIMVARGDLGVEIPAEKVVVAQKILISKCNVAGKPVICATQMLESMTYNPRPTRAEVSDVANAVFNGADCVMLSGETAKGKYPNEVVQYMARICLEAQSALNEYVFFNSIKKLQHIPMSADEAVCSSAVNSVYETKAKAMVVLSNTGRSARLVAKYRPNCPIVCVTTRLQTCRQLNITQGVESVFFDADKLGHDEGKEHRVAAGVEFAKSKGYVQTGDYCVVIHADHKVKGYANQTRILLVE

Compound	Potency
CC(C)C(C(=O)NCC1CCCO1)N(C(=O)CNS(=O)(=O)c1ccccc1)C1CCCCC1 (stereo not given)	inactive
Cc1ccsc1C=C1C(=O)c2ccccc2C1=O	active: 14.1 µM
Cc1c(Cl)cccc1-n1c(-c2cccnc2)n[nH]c1=S	inconclusive: 22.4 µM [falling, partial curve]
CCOC(=O)C(NC(=O)c1ccccc1F)(Nc1cc(C)on1)C(F)(F)F (stereo not given)	inactive
O=C(Nc1ccc2c(c1)CCC2)c1ccccc1	inconclusive: 14.1 µM [falling, partial curve]
CO/N=C/CC(=O)c1ccc(-c2ccccc2)cc1	inactive
O=C(O)c1ccc(N2C(=O)/C(=C/c3ccc(-c4ccc([N+](=O)[O-])cc4)o3)C=C2c2ccccc2)cc1	inconclusive: 25.1 µM [falling, single point]
O=C(Nc1ccc(NC(=O)C2CC2)cn1)c1ccccc1	inconclusive: 35.5 µM [falling, single point]
Cc1ccc(Cl)cc1NC(=O)c1cccc(OC(F)F)c1	inactive
Cn1cccc1C(=O)N/N=C/c1c(Cl)cccc1Cl	inactive
CCOc1ccccc1N(CC(=O)NC(C)(C)C)C(=O)CCC(=O)Nc1nccs1	inactive
Cc1cccc(-n2c(C)n[nH]c2=S)c1	inactive
COc1ccc2c(c1)CC/C(=C/c1ccco1)C2=O	inconclusive: 25.1 µM [falling, partial curve]
CNC(=S)N/N=C/c1ccc(-c2ccc(C(=O)O)cc2)o1	active: 14.1 µM
Cc1cccc(C(=O)NNC(=O)c2ccccc2Br)c1	inactive
CCCn1nc(C(=O)NCc2ccc3c(c2)OCO3)c2ccccc2c1=O	inactive
O=C(/C=C/c1ccccc1)Nc1cccc(C(=O)O)c1	inconclusive: 44.7 µM [falling, single point]
Cc1cc(C)nc(/N=C2\NC(=O)CC(C(=O)O)N2c2ccc(Cl)cc2)n1 (stereo not given)	inactive
COc1ccc(/C=C2\N=C(SC)N(C)C2=O)cc1	inconclusive: 10 µM [falling, partial curve]
CCCCc1cc(=O)oc2cc(C)cc(OCC(=O)NCc3ccccn3)c12	inactive
CC(=O)c1ccc(NC(=O)c2ccn[nH]2)cc1	inconclusive: 25.1 µM [falling, partial curve]
CCc1ccn2cc(-c3ccc4c(c3)OCO4)nc2c1	active: 14.1 µM
COc1ccc(Cn2c(=S)[nH]c3ccsc3c2=O)cc1	inconclusive: 25.1 µM [falling, single point]
Cc1nc2nc(-c3cccs3)cn2nc1C	active: 28.2 µM
Cc1cc(=O)[nH]c(N=N/C(=N/Nc2ccc(O)cc2)c2ccccc2)n1	inconclusive: 14.1 µM [falling, partial curve]
Cc1ccc(CCC(=O)Nc2ccccc2F)s1	inconclusive: 12.6 µM [falling, partial curve]
CCN1CCCC1CNC(=O)C(=O)NCCc1ccc(OC)c(OC)c1 (stereo not given)	inactive

Compound	Potency
Cc1cc2nc(-c3ccccn3)c(-c3ccccn3)nc2cc1C	inconclusive: 25.1 µM [falling, single point]
N#C/C(=C\c1cccs1)C(=O)Nc1nccs1	inconclusive: 17.8 µM [falling, partial curve]
Cc1ccsc1C(=O)Nc1ccc(C(=O)O)cc1	active: 14.1 µM
O=C1c2ccccc2C(=O)N1OS(=O)(=O)c1ccc(F)cc1	inconclusive: 15.8 µM [falling, partial curve]
COc1cccc(NC(=O)c2ccco2)c1	inconclusive: 28.2 µM [falling, partial curve]
COc1ccc(C(=O)NN/C(=N/S(=O)(=O)c2ccc(C)cc2)c2ccccc2)cc1	inconclusive: 22.4 µM [falling, single point]
Cc1scc(-c2n[nH]c(=S)n2C(C)c2ccccc2)c1C (stereo not given)	active: 12.6 µM
CCOC(=O)N1CCN(Cc2nnc(-c3ccccc3C)o2)CC1	inconclusive: 39.8 µM [falling, single point]
CSc1ccc(/C=N/NC(=O)c2cccc(Cl)c2)cc1	inconclusive: 14.1 µM [falling, partial curve]
CC1(C)CC(=O)c2sc(NC(=O)c3cccs3)nc2C1	inconclusive: 25.1 µM [falling, partial curve]
O=c1c2ccccc2[se]n1-c1ccccc1	active: 22.4 µM
CCC1(c2ccccc2)NC(=S)N(c2ccc(C)c(C)c2)N1 (stereo not given)	inconclusive: 39.8 µM [falling, single point]
CC1=C(C)Cc2c(OC(=O)c3ccccc3)ccc(OC(=O)c3ccccc3)c2C1	inconclusive: 0.891 µM [falling, single point]
CC(=O)Nc1ccc(N2C(=O)CC(N3CC(C)OC(C)C3)C2=O)cc1 (stereo not given)	inactive
Cc1cc2nc(-c3cccnc3SCC(=O)NC3CC3)[nH]c2cc1C	active: 14.1 µM
COCCNC(=O)/C(C#N)=C/c1ccc(O)c([N+](=O)[O-])c1	inconclusive: 28.2 µM [falling, partial curve]
FC(F)(F)c1ccc(Cl)c(-n2c(Cc3cccs3)n[nH]c2=S)c1	active: 8.91 µM
CCn1nnc(NC(=O)c2ccc(-c3ccc(Cl)cc3)o2)n1	inactive
O=C(/C=C/c1ccccc1[N+](=O)[O-])Nc1ccccc1	inconclusive: 25.1 µM [falling, partial curve]
CCOc1ccc(N=Nc2c(=O)[nH]n3c(C)cc(C)nc23)cc1	inconclusive: 25.1 µM [falling, single point]
COc1ccc(N=C2NC(=O)/C(=C\C=C\c3ccco3)S2)cc1	inactive
COC(=O)c1ccc(-c2nc3cc(Cl)c(N)cc3s2)cc1	inconclusive: 12.6 µM [falling, partial curve]
O=C(NC1CCCCC1)c1sc(=S)n2c1[nH]c(=O)c1ccccc12	inconclusive: 35.5 µM [falling, single point]
CCOC(=O)c1cnc(Nc2nc3ccccc3o2)nc1C	active: 14.1 µM
COc1ccccc1Nc1nnc(SCC(=O)N2CCCC2)s1	inconclusive: 28.2 µM [falling, single point]
Oc1ccc(-c2nc3ccccc3s2)cc1	active: 15.8 µM
N/C(=N\OC(=O)c1ccc(Cl)cc1Cl)c1ccccc1	active: 11.2 µM

Compound	Potency
O=C(Nc1ccc(F)cc1F)c1noc2c1CCC2	inconclusive: 11.2 µM [falling, partial curve]
Cc1cccnc1NC(=O)c1cc2ccccc2oc1=O	inconclusive: 7.94 µM [falling, full curve]
COc1cc(/C=C2/C(=O)c3cccc([N+](=O)[O-])c3C2=O)c(Br)cc1O	active: 14.1 µM
COc1ccc(-c2cc(C3CCNCC3)[nH]n2)cc1	inactive
O=C(N/N=C/c1sc(=O)n(-c2ccccc2)c1Cl)c1ccccc1	inconclusive: 22.4 µM [falling, partial curve]
O=c1c(Cl)c(N2CCOCC2)cnn1-c1nc2ccccc2[nH]1	inconclusive: 28.2 µM [falling, single point]
Cc1ccc(/C=C/c2nc3ccccc3[nH]2)o1	active: 15.8 µM
CCC(CC)C(=O)Nc1ccc(Nc2ccccc2)cc1	inactive
CC(C)Oc1ccc(NC(=O)Oc2ccccc2)cc1	inconclusive: 39.8 µM [falling, single point]
COc1ccc(C(=O)CC2OC(=O)c3ccccc32)cc1OC (stereo not given)	inconclusive: 28.2 µM [falling, single point]
COc1cccc(-c2ccc(SCc3ccccn3)nn2)c1	active: 14.1 µM
COc1ccc2[nH]c3c(=O)n(Cc4ccc(C(=O)N5CCC(C(N)=O)CC5)cc4)c(=S)[nH]c3c2c1	inconclusive: 5.01 µM [falling, single point]
COc1cccc(/C=N/c2nc3ccccc3[nH]2)c1O	inconclusive: 22.4 µM [falling, partial curve]
S=C(NCc1cccs1)Nc1ccccc1Cl	inactive
CC(=O)Cn1ncc(N2CCCCC2)c(Cl)c1=O	inactive
COc1ccc(-c2cc(=O)c3cc(OC)ccc3[nH]2)cc1	inconclusive: 10 µM [falling, partial curve]
O=C(O)/C=C/C(=O)NNc1ccc([N+](=O)[O-])cc1	inconclusive: 22.4 µM [falling, single point]
O=C(/C=C/c1ccnc2ccccc12)c1cccs1	inconclusive: 8.91 µM [falling, partial curve]
COc1ccc2[nH]c3c(=O)n(CCCCC(=O)N4CCCC4)c(=S)[nH]c3c2c1	active: 2 µM
Cc1cc(C(=O)N/N=C/c2ccncc2)c(C)o1	inconclusive: 28.2 µM [falling, single point]
O=C1CSC(=S)N1N1C(=O)c2cccc([N+](=O)[O-])c2C1=O	inconclusive: 15.8 µM [falling, partial curve]
Cc1ccccc1Nc1nnc(SCC2CCCCO2)s1 (stereo not given)	inconclusive: 28.2 µM [falling, partial curve]
c1ccc(-c2nc(-c3ccccn3)no2)cc1	active: 3.55 µM
CCn1cc(C(=O)O)c(=O)c2cc(F)c(N3CCN(C(=S)NC(=O)c4cccc(F)c4)CC3)cc21	inconclusive: 11.2 µM [falling, partial curve]
Nc1nccnc1C(=O)N/N=C/c1ccco1	inconclusive: 14.1 µM [falling, partial curve]
Cc1c(C(=O)O)sc2nc(SCC(=O)Nc3ccc(S(=O)(=O)NCCCC(=O)O)cc3)[nH]c(=O)c12	inconclusive: 28.2 µM [falling, single point]
